Measurements as given in the BET-seq Pho4 binding data (Le et al. 2018).
The other results are listed elsewhere or left out. Values were computed here from the reads of four pooled replicates and scatter widely.

Biological target: T1, Pho4 (S. cerevisiae) (UniProt P07270)
T1 sequence: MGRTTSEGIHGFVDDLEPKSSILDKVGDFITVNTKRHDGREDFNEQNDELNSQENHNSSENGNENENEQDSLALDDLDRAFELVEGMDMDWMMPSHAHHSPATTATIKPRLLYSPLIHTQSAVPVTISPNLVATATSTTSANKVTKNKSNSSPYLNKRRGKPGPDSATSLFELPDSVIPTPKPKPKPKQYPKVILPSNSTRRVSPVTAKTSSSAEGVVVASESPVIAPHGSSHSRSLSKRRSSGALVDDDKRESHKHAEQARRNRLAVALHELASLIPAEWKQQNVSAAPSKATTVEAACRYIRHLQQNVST
Experiment: relative binding free energy (BET-seq); higher = weaker binding
Details: reference: library average

Sequence | relative binding free energy [kcal/mol]
GTCCGCACGTGGTTTG | -0.12
TTAGACACGTGTTTCT | -0.04
GGTAACACGTGTTGCT | 0.02
TTATGCACGTGGCCAG | -0.09
GGGTACACGTGATAAT | 0.32
CGTGACACGTGTTGAA | 0.08
TATTTCACGTGGTAAA | 0.33
AATTGCACGTGATTGG | 0.03
ATGAACACGTGGGAAG | -0.04
GGTGTCACGTGATTGA | 0.22
GAGTTCACGTGGCCGG | 0.4
GGAGACACGTGTGACG | 0.15
TAGGACACGTGATTTG | 0.19
AAGTCCACGTGCTGTG | 0.03
TTGCTCACGTGTAGGC | 0.23
TGTTGCACGTGGAATA | 0.02
TACATCACGTGGTGGC | 0.13
CGCATCACGTGGGGGT | -0.1
GGGGACACGTGTTGCG | 0.08
TATTTCACGTGGGTGG | 0.27
TGTAGCACGTGTGGGA | -0.05
CTCTGCACGTGGTTAG | -0.03
AGGTTCACGTGGTGCC | 0.28
CGGGTCACGTGAGAGT | 0.27
GTAGTCACGTGCGTTA | 0.08
GGCTGCACGTGTGGGT | 0.09

Sequence | relative binding free energy [kcal/mol]
CAGGGCACGTGTAAGT | 0.01
GGTGCCACGTGGTATT | -0.1
ACGGCCACGTGTGGGT | -0.05
TGTTACACGTGTTAAC | 0.13
AAGTGCACGTGGATAT | 0.05
AAGGACACGTGGGGAC | 0
AGGCGCACGTGGTTGT | -0.13
GGGAACACGTGCCGGG | 0.05
TCAGGCACGTGTTTGT | -0.09
TAGATCACGTGGGGTA | 0
GTGAGCACGTGTTGCG | -0.16
TAAGGCACGTGGGTTC | -0.08
TAGTACACGTGGGTAA | -0.01
GGTTGCACGTGAAGGT | 0.27
TTGGGCACGTGGCGTC | -0.14
TTGTCCACGTGTTCTA | 0.17
GTTTGCACGTGCGCTG | 0.14
TGTGTCACGTGTTCAA | -0.06
CTGCGCACGTGGGGGT | -0.3
GGGCTCACGTGGTGGT | 0.09
TTGATCACGTGGGTTG | -0.02
GGTGTCACGTGTGAAC | 0.15
TGCGCCACGTGAGTGG | 0.1
AGGGACACGTGGTTAA | -0.01
TGGGGCACGTGAGGGC | 0.11
GTAAGCACGTGGGAAG | 0.04

Sequence | relative binding free energy [kcal/mol]
CAGTTCACGTGAGTTG | 0.33
CTTGTCACGTGTTTGA | 0.1
GTTGGCACGTGGTGCC | -0.05
TCGTGCACGTGTGATA | 0.03
TAGGGCACGTGTAGTT | 0.06
ACATGCACGTGTTGTG | -0.16
TAGGGCACGTGCGCAT | -0.2
TATTTCACGTGGAATT | 0.32
TTACGCACGTGGTTAG | -0.15
CGTTTCACGTGTATGC | 0.27
GGGGTCACGTGATTCT | 0.25
GGATTCACGTGGTGGA | 0.23
GTGTCCACGTGTAAGT | 0.11
ACGGTCACGTGGGGGA | -0.03
TAGGGCACGTGGGGGG | -0.22
GTTGACACGTGGGAAA | -0.02
TCGGTCACGTGAATGT | 0.37
GAGCACACGTGTGAGG | 0.22
AAGTACACGTGGGATG | -0.08
TACGTCACGTGCTGGG | -0.11
TAATGCACGTGTAGGA | 0.07
TAACGCACGTGGTGCG | -0.1
TGATTCACGTGTCATG | 0.28
GGGGTCACGTGTAGCT | 0.12
GTGGACACGTGACGTT | 0.12
CTTGGCACGTGGAGAA | 0

Sequence | relative binding free energy [kcal/mol]
GATCGCACGTGTGTGT | -0.01
GTTCTCACGTGGTTGG | 0.19
AGATTCACGTGAGGTT | 0.39
AAATGCACGTGGTGCT | 0
TTTTACACGTGTGGAC | 0.11
TGAAGCACGTGTAGTG | 0.01
GTTGACACGTGGAATG | 0.24
TTTAACACGTGTGTCG | 0.04
TTTTGCACGTGTCGAC | 0.13
GGATTCACGTGGGTGT | 0.15
CAGGGCACGTGGTTGT | -0.19
GGTCCCACGTGGTAGT | 0.02
TCGTACACGTGTATTT | 0.22
AGGTCCACGTGTAGTG | -0.05
TTTTACACGTGCGGGC | 0.2
GGTGGCACGTGTGCAG | -0.03
TGGAACACGTGGTATG | -0.08
TTCCTCACGTGATTGT | 0.45
ATAGGCACGTGGATTC | 0.04
TGGTGCACGTGAGGCT | 0.18
TATCGCACGTGTGATA | 0
TATATCACGTGGACGG | 0.24
TTTTTCACGTGCACTG | 0.15
GGTTGCACGTGTATTC | 0.08
ATGTTCACGTGGTCGA | 0.2
GTAGCCACGTGTAGTT | 0.07

Sequence | relative binding free energy [kcal/mol]
AGGTTCACGTGATCTT | 0.43
ATATGCACGTGTATAG | 0.04
TTTTTCACGTGAGTCT | 0.41
ATGTTCACGTGTTGGT | 0.28
TAAGCCACGTGTCGTG | 0.1
GTGCTCACGTGTTAGT | 0.23
GGTGACACGTGGATAG | 0.05
GCGGTCACGTGAGATT | 0.44
TCATGCACGTGGGGCG | -0.11
CAATACACGTGGTGTG | -0.11
TTATGCACGTGGATCT | -0.07
TTGAGCACGTGTCGAT | -0.08
TATTTCACGTGTCGTG | 0.15
ATATGCACGTGAATTT | 0.07
AGGTGCACGTGGTTTT | -0.17
TATAGCACGTGTAGAG | 0.07
AAGGGCACGTGGCATT | -0.22
ATCCTCACGTGGTGGG | 0.17
CTGTGCACGTGATGGA | 0.1
CTTGGCACGTGTGAAG | -0.1
GAAGTCACGTGGGACG | 0.04
TGGTGCACGTGAGATC | 0.33
TTGTGCACGTGCCGGG | -0.03
GGATCCACGTGGGCGT | 0.07
TAAAGCACGTGTAAAT | 0.24
GGGTTCACGTGTATTC | 0.25

Sequence | relative binding free energy [kcal/mol]
CTGTTCACGTGTAGAT | 0.49
TGGGTCACGTGTTGCA | 0.2
CTTTGCACGTGTAGTC | 0.13
ATTATCACGTGAGAAG | 0.29
GGACGCACGTGAGGTA | 0.12
ATTAGCACGTGTTAAA | 0.08
GGTATCACGTGGTAAT | 0.15
TGTGTCACGTGCGTGG | -0.06
GGAGACACGTGGGGCT | -0.09
TCTATCACGTGCGGTG | 0.11
GATGGCACGTGTCGGC | 0.01
TTATTCACGTGTCGTG | 0.19
TAATTCACGTGTTGTC | 0.36
TGGGTCACGTGTGGTG | 0.18
ATTAACACGTGTTGGG | 0.06
GGTAACACGTGGCTGG | 0.04
GTTTGCACGTGGCGTG | -0.05
AATTTCACGTGGGGTC | 0.23
CATGTCACGTGGTCTG | -0.03
TGTTGCACGTGCAGGA | -0.05
GGCCACACGTGTAGGG | 0.12
AGGTACACGTGGTGGC | -0.03
GTTAGCACGTGTATCT | -0.01
TATTTCACGTGAGGTT | 0.25
GCTTGCACGTGTTAGT | -0.01
TGACGCACGTGTATGT | -0.18

Sequence | relative binding free energy [kcal/mol]
TTGATCACGTGCGTCT | 0.1
TATGTCACGTGGAGGT | 0.18
GTTTGCACGTGGGCGT | -0.03
TGAAACACGTGTTATG | -0.02
ACATGCACGTGGATGG | -0.08
GGTTGCACGTGTAGAG | 0.21
AGATGCACGTGTGGTT | -0.02
TAAGTCACGTGATCTT | 0.15
GAGGGCACGTGTGTGA | -0.04
TGGTGCACGTGTCCGT | -0.18
GGTTTCACGTGTTTAC | 0.4
TGAAGCACGTGGGCGC | -0.08
AAATACACGTGGATTG | 0.16
AGATTCACGTGGGGGG | 0.21
TATATCACGTGCAGGT | -0.03
TTTGTCACGTGCATCG | -0.02
TATAGCACGTGAGTTC | 0.17
AAAGACACGTGGTTTT | 0.09
GTTTTCACGTGGCTTG | 0.31
GGTCACACGTGTCGGG | 0.02
TGGAACACGTGGTAAT | -0.08
TTATTCACGTGTTAGC | 0.19
TTATTCACGTGGCTGG | 0.18
AGTAACACGTGGGTGC | -0.13
GTTTACACGTGCGTGG | 0.16
GCTATCACGTGGCGGG | 0.13

Sequence | relative binding free energy [kcal/mol]
GGGAGCACGTGAGGTG | 0.24
CGGTGCACGTGGTGAA | -0.16
CGTACCACGTGTGGTT | 0.09
ATGTACACGTGGGCCG | -0.14
AGAAGCACGTGCTGTA | -0.01
TTTCTCACGTGGAGTT | 0.42
GGGCCCACGTGGGATG | -0.02
CAAGGCACGTGTTGTG | -0.15
TTATTCACGTGGGTGC | 0.1
TCTTCCACGTGAGGGG | 0.27
ATTGACACGTGGTGTA | -0.19
GTGTACACGTGAGTTC | 0.26
CTTGGCACGTGAGTGG | 0
GTTATCACGTGATGGT | 0.31
TGGTTCACGTGACTCG | 0.33
GGAGACACGTGGGGGG | -0.14
GTATTCACGTGATAGA | 0.24
TAGGGCACGTGTCGAT | 0.02
ATGGTCACGTGGTTAG | 0.1
TTGAGCACGTGTAGCG | -0.09
AGTTACACGTGTTTCG | -0.03
TGGAGCACGTGAGGGG | 0.18
GCGTTCACGTGCGTTG | 0.22
GACTGCACGTGGGGTC | -0.1
AGGCGCACGTGGAGGG | -0.1
TGGTGCACGTGTGATA | 0.1

Sequence | relative binding free energy [kcal/mol]
TTGTTCACGTGTATGA | 0.2
AGATGCACGTGATCGT | 0.19
GGGGCCACGTGGAGAT | -0.09
TGGTACACGTGTTTCA | -0.08
TTTGCCACGTGGTGTT | -0.18
GCGTGCACGTGGTGTC | -0.08
GGTCACACGTGATGCG | 0.34
GGTCTCACGTGAATGT | 0.4
ATTCGCACGTGTGGTT | 0.14
CTATACACGTGTAGTT | 0.02
TTAATCACGTGAGGGC | 0.24
GCGCTCACGTGTGTGT | 0.18
GTGTACACGTGTGACT | 0.18
TATTACACGTGGGTGC | -0.05
AGTTCCACGTGGGGCT | -0.05
TGGGGCACGTGTGGGG | 0.01
ACAGTCACGTGAGGTT | 0.16
AGTATCACGTGTTTTA | 0.12
GGAGACACGTGGATTT | 0.09
ATGACCACGTGTGTGT | 0.08
TGGTGCACGTGCTCTG | -0.2
AAGGTCACGTGGTTAC | 0.1
